The source of these data is the supplement of paper PMC11417369.

± gives the standard deviation of the averaged measurements. This is one part of the list.

The assay has as its system PfAP2-G AP2 domain (GST-tagged). Briefly: gcPBM binding intensity (ln(normalized median fluorescence intensity)); higher = stronger DNA binding. Summed up:
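GST-tagged P. falciparum DNA-binding domains, expressed in E. coli (about 25 μg on average), were applied for 1 h to an Agilent 4 × 180k array of primer-extended double-stranded 36-bp intergenic genomic probes plus negative controls. The binding buffer was 1× PBS with 1% milk, 0.2 mg/ml BSA, 0.5% salmon testes DNA and 0.03% Triton X-100. Bound protein was detected with Alexa488 anti-GST antibody and scanned at 488 nm. Binding intensity is the highest Masliner-normalised natural-log median intensity across replicate spots of either probe orientation.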
“ATAATATTAATATGTACACACCTTAATCCTTAAAAG [CACACA_site7640]”: the “gcPBM binding intensity (ln)” value came out at 11.4 ± 0.86.

Take “TAACAAAAAGGGAACACATGCGCTCTTTATTTATTT [TGCATGCA_site620]”: the “gcPBM binding intensity (ln)” value was found to be 10.14 ± 0.064.

Consider “TATAGAAGCATTCACACACACACATACATACACATA [CACACA_site1466]”, for which the “gcPBM binding intensity (ln)” value is 10.1 ± 0.28.

For “TTGCATTTTCTAGTAACACACAATTAGCGTTGCTGT [CACACA_site3594]”, the “gcPBM binding intensity (ln)” value was determined as 9.83 ± 0.028.

Regarding “AGAGAGAAAGCTATAACATGCAACAATTTTTAGAAC [TGCATGCA_site596]”, the “gcPBM binding intensity (ln)” value worked out at 9.79 ± 0.14.

Regarding “AAATTATTTATTTTATGTACATATTATTAAAGTTAA [XGTACX_site552]”, the “gcPBM binding intensity (ln)” value was found to be 11.3 ± 0.78.

In the case of “TATTATAGAAATTTAATGTTGGACAAAAAAATGAAA [CACACA_negctrl_site1351]”, the “gcPBM binding intensity (ln)” value worked out at 10.7 ± 0.48.

Turning to “TCTTAATATCGTTTCTCACACATATACAAACATAAA [CACACA_site5700]”, the “gcPBM binding intensity (ln)” value amounted to 10.2 ± 0.21.

In the case of “AATATATGAATTATATGTACATATAGATAAGTCACA [XGTACX_site7637]”, the “gcPBM binding intensity (ln)” value came out at 11.1 ± 0.69.

On to “ATCTATATTTAATTTACACACAAAAAAAATTGTTGG [CACACA_site6582]”, for which the “gcPBM binding intensity (ln)” value stood at 10.04 ± 0.064.

For the sequence “AAAATGTGATATGTAAATATATATGTATGTATATAT [CACACA_negctrl_site1748]”, the “gcPBM binding intensity (ln)” value was determined as 9.825 ± 0.064.

Regarding “TAATGCATTTTCGCATGTACATATTTCTCTTTATAT [XGTACX_site8915]”, the “gcPBM binding intensity (ln)” value was 11.1 ± 0.71.

Regarding “ATAAATGACAAATTAACACACATATATTATAGATAT [CACACA_site7770]”, the “gcPBM binding intensity (ln)” value amounted to 9.795 ± 0.049.

With “TTTCTTTTTTTTTTTTTTTTTTTTTTTTTTTTTTTT [TGCATGCA_negctrl_site91]”, the “gcPBM binding intensity (ln)” value turned out to be 11.2 ± 0.61.

As to “ACAAAAATAAACTATAGTACACACTTATTATTATGA [XGTACX_site5680]”, the “gcPBM binding intensity (ln)” value is 11.1 ± 0.59.

As for “TCATTTTATTTTTTCACACACACATCTATATTTATA [CACACA_site7547]”, the “gcPBM binding intensity (ln)” value came to 10.1 ± 0.11.

Take “TAAGTAACTTTTAAAAGTACCCACACATATATATAT [XGTACX_site1231]”: the “gcPBM binding intensity (ln)” value stood at 11.4 ± 0.77.

For “TTTCCCTTGTTGTAAACATGCACAATATTTAGGTAT [TGCATGCA_site49]”, the “gcPBM binding intensity (ln)” value is 10.1 ± 0.23.

With “AAAAAAAAGAAAAACACACACATATATATATAGAAT [CACACA_site1006]”, the “gcPBM binding intensity (ln)” value is 9.72 ± 0.12.

For “TATATTTATAGGTATACACACATATGTATGTTATGT [CACACA_site7824]”, the “gcPBM binding intensity (ln)” value was determined as 10.2 ± 0.16.

On to “TTATGTATTTATATAAATATAAATATATATATATAT [CACACA_negctrl_site774]”, for which the “gcPBM binding intensity (ln)” value was determined as 9.63 ± 0.057.

Take “ATACATATAAATAATTGTACTATTAAAAAAGAACGT [XGTACX_site3751]”: the “gcPBM binding intensity (ln)” value worked out at 10.9 ± 0.52.

With “TATATATATATATGTTGTACAAAAATGTAAAATATA [XGTACX_site7761]”, the “gcPBM binding intensity (ln)” value was determined as 11.1 ± 0.57.

On to “AAAAAAAAAAATACTCGTACATAAACCTATACATTT [XGTACX_site6494]”, for which the “gcPBM binding intensity (ln)” value is 11 ± 0.47.

Regarding “CAATTAGCATTTTATTGTACATTTATAATCTATGAT [XGTACX_site1445]”, the “gcPBM binding intensity (ln)” value came out at 10.8 ± 0.46.

In the case of “CTTAGAATATATGAATGTACTTTTTTTTTTAAATAA [XGTACX_site6048]”, the “gcPBM binding intensity (ln)” value was found to be 11.3 ± 0.95.

For “ATAATATATTTTTGTAGTACACTTCTGGTAATATCG [XGTACX_site2402]”, the “gcPBM binding intensity (ln)” value amounted to 11.7 ± 1.

For “AGTATACAGATATATACACACATATATATATATATA [CACACA_site4323]”, the “gcPBM binding intensity (ln)” value turned out to be 10 ± 0.45.

Regarding “ATATATTATTTCTAGTGTACATACCCATATATAATA [XGTACX_site8902]”, the “gcPBM binding intensity (ln)” value was found to be 11.2 ± 0.69.

As to “AATCCACTTTTTTATGTTATACAATATAAATTAAAT [XGTACX_negctrl_site446]”, the “gcPBM binding intensity (ln)” value stood at 10 ± 0.23.

In the case of “ATTTAAGAAAAAAGTTGTACTTATTTATTTTTATTT [XGTACX_site5561]”, the “gcPBM binding intensity (ln)” value turned out to be 11.4 ± 0.91.

Turning to “GGCTAAAAGGGGCACACACACAAAAAAAAAAAAAAA [CACACA_site3288]”, the “gcPBM binding intensity (ln)” value came to 10.9 ± 0.86.

As for “ATAAATAAGATATATACACACATATCTATACATATT [CACACA_site6369]”, the “gcPBM binding intensity (ln)” value is 9.74 ± 0.14.

Regarding “TAAAAAATAAATATATGTACATATTTATTTTTTTTT [XGTACX_site850]”, the “gcPBM binding intensity (ln)” value turned out to be 11.2 ± 0.81.

Regarding “ATATTTTTTTTTTCGTGTACGCATAAATATATCTAA [XGTACX_site3360]”, the “gcPBM binding intensity (ln)” value is 11.6 ± 0.95.

“ATTGAATTCCAACTGGTGCACCAGTAAGATTGAAAA [GTGCAC_site9895]”: the “gcPBM binding intensity (ln)” value came to 10.4 ± 0.2.

For “TAGATAAACAAGAAATGTACAAACGTAAATATGTTC [XGTACX_site2373]”, the “gcPBM binding intensity (ln)” value was found to be 10.6 ± 0.29.

“GGAAACAAAAAATATATACACACTAAACATAAAAAA [CACACA_site20]”: the “gcPBM binding intensity (ln)” value amounted to 9.91 ± 0.071.

With “TCATAGTAGAAACACACACACACACCCATATATATA [CACACA_site1737]”, the “gcPBM binding intensity (ln)” value was determined as 9.98 ± 0.13.

As for “AACGCACATATATTTATGTATATATATATATATATA [GTGCAC_negctrl_site478]”, the “gcPBM binding intensity (ln)” value worked out at 9.97 ± 0.42.

Consider “GTTATTAAACAGAAAAGTACATATGTATATTAAAAT [XGTACX_site3724]”, for which the “gcPBM binding intensity (ln)” value is 11.2 ± 0.76.

With “TTATTAAATAAAATCATGCACACAATATATATTTTA [CACACA_site2496]”, the “gcPBM binding intensity (ln)” value turned out to be 9.87 ± 0.099.

Take “TTATTACATAACAATATACACACTATTGATTAAAGA [CACACA_site2933]”: the “gcPBM binding intensity (ln)” value stood at 9.82 ± 0.042.

In the case of “TAAAAAAAAAGAAGCTGTACTAAAAAATTTATATTA [XGTACX_site7408]”, the “gcPBM binding intensity (ln)” value came out at 11.1 ± 0.81.

In the case of “ATAAATATGTAAAAAACATGCAAAAAATTAAAGACA [TGCATGCA_site912]”, the “gcPBM binding intensity (ln)” value stood at 9.99 ± 0.057.

Consider “ATATATATATAATTTGTACACACAAATATGCATATA [CACACA_site9136]”, for which the “gcPBM binding intensity (ln)” value turned out to be 11.3 ± 0.88.

As for “AAGAAAAACAATGAGATAAAGAAGAGAAAATATGTC [TGCATGCA_negctrl_site415]”, the “gcPBM binding intensity (ln)” value was 9.92 ± 0.21.

Turning to “AAATTCATAAAAATATTTTATAATTATATATAGAAT [TGCATGCA_negctrl_site343]”, the “gcPBM binding intensity (ln)” value was 9.7 ± 0.042.

In the case of “GGGTTTTTTATTAATACATGCATGGAAACGCACTAT [TGCATGCA_site1000]”, the “gcPBM binding intensity (ln)” value was 10.2 ± 0.28.

Take “AGTGGAATGTATGATTTTCATTCCTTAAAATTTTAA [GTGCAC_negctrl_site521]”: the “gcPBM binding intensity (ln)” value stood at 9.76 ± 0.16.

Consider “TATATATATGTAAATCGTACAAATTATATATATCAT [XGTACX_site2821]”, for which the “gcPBM binding intensity (ln)” value came out at 10.9 ± 0.47.

For “TATATCTCATAGTATACACACACACCCACCCACATA [CACACA_site8513]”, the “gcPBM binding intensity (ln)” value came out at 10.5 ± 0.31.

As to “TAATTTTCTTTTTATCGTTTTTTTTTTTTTTTTTTT [XGTACX_negctrl_site432]”, the “gcPBM binding intensity (ln)” value was determined as 10.7 ± 0.71.

Turning to “CATTATGTTGTAAATACACACATACATATACATACA [CACACA_site8143]”, the “gcPBM binding intensity (ln)” value was determined as 10.2 ± 0.2.

Regarding “AATACTAAAAAGTGTACACATACATAAAAAATTGCA [CACACA_site5620]”, the “gcPBM binding intensity (ln)” value was 11.6 ± 0.87.

For “AAGAAAAAAGTTATTAGTACACATTATAATAAAAAG [XGTACX_site3527]”, the “gcPBM binding intensity (ln)” value is 11.4 ± 0.72.
